The source gives no read counts; variants with many changes may rest on few reads.
B1: LINE1-mini (parent)
chain: GGCAGAGCUCAACACAGCGUGGCAAAGUGGCUGUGGCUAGACUGCC

Variants of: B1
Experiment: self-cleavage, relative activity (ratio to wild type); higher = more cleavage; in vitro, sequencing; the parent is a self-cleaving ribozyme

Variant | self-cleavage
G19A A26G U43C | 0.1
G17U G29U U32A | 0.1
C18G U28G U38G C45A | 0.01
C18A G19U A24C | 0.56
G17U G27U U34A | 0.03
C18U U38C A41U U43G | 0.05
C18U G30U C37G | 0.02
G17U U20C G29U | 0.39
G19A C23G G44A | 0.21
C18U U20C C37G C45U | 0.02
C18G G19U G33U U38G C46G | 0.05
G19A A41G U43G | 0.1
C18A U28G U43C | 0.03
C18G G27U G30U | 2.75
C18G U20A C23A G33U C46U | 0.01
C18U G29U G35A | 0.17
G19A A39U C42U | 0.47
G17U C18G A24U | 0.06
C18U G21C G40U | 0.1
G17U G30A G44C C46U | 0.01
C18U G30A G44U | 0.09
C18A A26C G35A G40U G44A | 0.01
C18A G21U C37G G44A C46U | 0.02
G19A C23U G29U | 0.36

Variant | self-cleavage
C18U G21U C42A | 0.06
G17C G21A G22A G33A G40C U43A | 0.02
G17C G19C G33U | 0.08
G17U G19C U32A | 0.09
C18G C23U A25C G36U | 0.12
C18U C37G G44U C46U | 0.03
C18A A26U G36A C37U | 0.1
G17U G30C C45G C46G | 0.01
C18A G22U G35U C42G | 0.01
C18A G22A U32C U34C G36A | 0
G19A A24G G27C G35C G36U U43C | 0.06
C18A G22C C46G | 0.43
G17C C23A G35C | 0.07
G17U C18U G21C A26U U28A U32G | 0.06
C18A A26G G36A | 0.17
G17U U28A A39G | 0.02
G17U A25U C37A | 0.07
C18A U28C C42U | 0.11
C18U G29C G40C U43C C45A | 0.06
C18U G19A A39G | 0.06
G17U U20A G27C G30A G40C C45U | 0
G17U G22A A24C G33U G40U | 0.09
G17C G27A A41C C42A | 0.02
C18U A25U U34C C37G G44A | 0.04

Variant | self-cleavage
C18A A24U A39U G40A A41G C45U | 0.01
G17U G36A C37A G44U | 0.03
C18A A24C C42G | 0
G17C C18U G40U C46G | 0.01
G19A C23U U28C G29A | 0.9
G17U C23A A24U A25C A39U | 0.05
C18A U20G U34A G35A | 0.01
G19A C23G U34A C42A | 0.06
G17C G21C C42G G44U | 0.02
G17C G21A C46A | 1.68
C18U A26C G27C G30C A39C | 0.32
G17C U34G U43A | 0.02
C18U G29A U32G G44U | 0.04
C18A G33U C42G | 0.02
C18G A26G C42G C46A | 0.06
C18A U32A G44A | 0.03
C18G G21A G22C G33C | 0.01
C18A G29A C37A | 0.05
C18G A39G G40C | 0.05
G17C G19U A39G | 0.11
C18G G30A U38C U43A | 0.03
C18U U34A C37U A39U | 0.03
G17U C31A C37U | 0.01
G17C G27U U34G | 0.09

Variant | self-cleavage
C18U C23U A24G G29A | 1
C18A A24C G33U U38G A39C | 0.02
C18A A24U C37A A39C U43A | 0.04
C18A G22U A25U G30C C31U U38C G40U | 0.05
C18U U20C U43A | 0.04
G17U C31A C42U U43A | 0.09
G17U A41G C46A | 0.13
C18U A25C G29A | 0.46
C18U G35A U43C | 0.04
C18G A25U U34C | 0
G17C U20G G29A G44A | 0.04
G17U G19U U28C U34G | 0.06
G19A A26G U28A U32A | 0.02
C18A G27U U38A | 2.62
G17C C18U A26C G33C | 0.02
C18U G21U A26G | 1.34
G17U U38A C45U | 0.17
G17C G27U G33A C46G | 0.01
C18U A26U A41U | 0.73
G17C C31A U38C | 0.41
C18A G21U G35A | 0.02
C18A G19A C23A A24U G44A | 0.05
C18U G29U G40U A41G | 0.24
C18G G19A G21A G22C C23U C31U | 0.03

Variant | self-cleavage
C18A G29U G40U | 0.04
C18U G30C C31G | 0.28
G17U G29A U32C | 0.04
C18G G19U G30A A41G | 0.58
G17C G27C U34A | 0.04
G19A A39C A41C G44C | 0.04
C18U G22U G29U | 2.61
G17U U20A C31U | 0.08
G17U C23A U28G U34A | 0.04
C18G C31A C45G | 0.03
G17U C18A G22C | 1.17
G17U U20G U38A | 0.04
C18A C23U G33A | 0.02
G17C G21U C45A | 0.23
C18G C23U G29C G30A C31A C37U | 0
C18U A41C U43G | 0.05
C18A G29A U34A U38C | 0.04
C18G G27A U34C G44U | 0.04
C18G G22U C46U | 0.14
G17U G22A C46U | 0.11
C18A G22U U32C A39G G44C | 0.01
C18A G21U U34C G44U | 0.02
C18U C23U A41U G44A | 0.06
C18A A25C U28C | 0.1

Variant | self-cleavage
G19A C31A G40U C42A | 0.03
G17C G29C G30C U32A | 0.02
C18U G19C A39U | 0.07
C18G G29U C42A | 0.09
C18A U43G G44C | 0.02
C18A U43G G44U | 0.03
C18U G19A U32A U34C | 0.02
C18A C23A A25U G30U U34A A41C G44A | 0
G17U C37U A41C | 0.02
G17U G40A A41U | 0.35
C18A G21A G40A C42G | 0.16
C18A G27C G33U G36C C46U | 0.01
C18G G21C G27C G33U | 0.04
C18A G33U C46A | 0.02
G17C G35A A39U U43C | 0.01
C18A A24C G33A U34C C42A | 0
C18G C31U G35C | 0.11
C18A G29U C31A | 0.16
G17U C31U U32A U34G G36A C42A | 0.01
G17C G40U C46A | 0.11
C18U G33C C46U | 0.02
G17U A25C C42A | 0.04
C18U U28A C31G G35U | 0.02
G17U G27U C45A | 0.03

Variant | self-cleavage
G19A C23U A26G G27U | 0.09
C18G U20C C45U | 0.13
G17U C37G C45A C46A | 0.02
C18G U38A C42A | 0.08
C18G C45U C46A | 0.08
C18U G22U A24G G40C | 0.01
C18A U34C A41U G44C | 0
C18U C23U A24U G33A | 0.04
C18U G27U G35C A39U C46U | 0.01
C18G U20G C31U | 0.01
G17U A24G A26G G27C C37G U43A | 0.01
C18A A24G A25G | 0.43
G17C C18U G29U | 0.76
G17C C37U C46U | 0.38
C18A A24G U28A U32C | 0.04
G17U C23A U32A | 0.05
C18G A26C A39U | 0.26
C18G A24U G29C C46A | 0.69
C18A C37A G40A | 0
G17C U28G G29U C31A G36C U43A | 0.05
C18U G22U A25C A41C | 0.04
G19A A24G C31A | 0.56
C18G U34A G40U | 0

— the RNAGym collection of RNA variant scans (doi:10.7554/elife.90254)
